Measurements from PubChem BioAssay AID686979 (National Center for Advancing Translational Sciences (NCATS), 2013).
“And” between values parts separate entries of the source, which are not always exact repeats. Identical values can stand only once. About 50,000 (12%) of roughly 420,000 compounds were called active. The shares of active, inactive and inconclusive entries below differ from those in the screen. Calls follow the shape of the dose curve; as a rule, active = well fitted inhibition curve with a large enough effect; inconclusive = small, poorly fitted or top-dose-only effect; inactive = flat fitted curve, though single readings scatter. Potencies of inconclusive entries are left out as doubtful fits.

assay: qHTS for Inhibitors of human tyrosyl-DNA phosphodiesterase 1 (TDP1): qHTS in cells in presence of CPT; settings: chicken DT40 Tdp1-/-;hTDP1 cells + 20 nM CPT, ATP luminescence, 48 h; activity change, negative = growth inhibition: at 46.2 µM (top of the series) unless noted; also: nearly all actives have a fitted effect of over 55% in size
In short: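 Chicken DT40 Tdp1-/- cells stably complemented with human TDP1 were seeded at 400 cells/well in medium containing 20 nM camptothecin, exposed to pin-transferred compounds, and grown at 37 °C for at least 48 hr. Viability was read as ATP luminescence.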
% is scaled to controls: 0 for no effect and ±100 for the full control effect; potency is read from the fitted curve at half-maximal effect; tags tell the direction and shape of the fitted curve.

SMILES	Potency	activity change, negative = growth inhibition
Fc1cccc(-c2ccc3c(c2)CN(c2cccc(Cl)c2)Cc2cnnn2-3)c1	inconclusive [inhibitor, single point]	–
COC(=O)C1=C(c2cc3ccccc3o2)C[C@@H]2CC[C@H]1N2C(=O)N1CCCCC1	active: 4.61 µM	–
CCCCn1c(=O)c(C(=O)NCc2ccccc2Cl)c(O)c2ccccc21	inconclusive [inhibitor, single point]	–
O=C(Cc1c(Cl)cccc1Cl)N1CCN(Cc2ccccc2)CC1	inactive	–
O.O.O.O=C([O-])C(O)C(O)C(=O)[O-].O=C([O-])C(O)C(O)C(=O)[O-].[K+].[K+].[Sb].[Sb] (stereo not given)	inactive	–
Cc1ccc(-n2c(C)cc(/C=C3\C(=O)NC(=O)N(C)C3=O)c2C)cc1C	inconclusive [inhibitor, single point]	–
CCCCN(Cc1ccccc1)C1CCN(CCc2ccccc2)CC1	inconclusive [inhibitor, single point]	–
CCOC(=O)c1sc2ccccc2c1NC(=O)c1coc2ccccc2c1=O	inconclusive [inhibitor, single point]	–
CC1CCCN(c2ccc(C(=O)N3CCC4(CC3)OCCO4)cc2[N+](=O)[O-])C1 (stereo not given)	inconclusive [inhibitor, single point]	–
C=CCN1CC[C@@]23c4c5ccc(O)c4O[C@H]2/C(=N\N=C2/CC[C@@]4(O)[C@H]6Cc7ccc(O)c8c7[C@@]4(CCN6CC=C)[C@@H]2O8)CC[C@]3(O)[C@@H]1C5	inconclusive [inhibitor, single point]	–
CN1c2ccc([N+](=O)[O-])cc2CC2(C(=O)NC(=O)N(c3ccccc3)C2=O)C1c1ccccc1 (stereo not given)	active: 13 µM	–
COC(=O)[C@H](Cc1ccccc1)N(Cc1ccccc1)S(=O)(=O)N(Cc1ccccc1)[C@@H](Cc1ccccc1)C(=O)OC	active: 23.1 µM	–
Cc1ccc(S(=O)(=O)N2CCC(=O)N(CCOC(=O)Nc3cccc(Cl)c3)CC2)cc1	active: 11.6 µM	–
Cc1nc2cc(C(F)(F)F)ccc2n1C1CCN(Cc2nnnn2Cc2ccc3c(c2)OCO3)CC1	active: 29.1 µM	–
CC(c1ccc(F)cc1)n1cc(C(=O)NCc2ccc3c(c2)OCO3)nn1 (stereo not given)	inconclusive [inhibitor, single point]	–
CCOc1ccc(/C=C/C(=O)C(C(N)=O)=C2SCCS2)cc1	inconclusive [inhibitor, single point]	–
O=c1c2ccccc2nc(-c2ccccc2F)n1-c1ccccc1	inconclusive [inhibitor, single point]	–
Cc1cccc(-n2c(-c3ccc([N+](=O)[O-])cc3)nc3ccccc3c2=O)c1	inconclusive [inhibitor, partial curve]	–
CCOc1ccc(CCNC(=O)c2ccc(CS(=O)(=O)c3ccccc3C)o2)cc1OCC	inconclusive [inhibitor, single point]	–
CC(C)CN1CCC2(CC1)CCN(S(C)(=O)=O)CC2	inconclusive [inhibitor, partial curve]	–
C=C(Cl)CSC(=S)N(CC)CC	active: 5.17 µM	–
O=C(CCl)Nc1nccs1	active: 2.59 µM	–
CN1CC=C2C(C#N)=C(N)C(C#N)(C#N)C(c3ccncc3)C2C1 (stereo not given)	inconclusive [inhibitor, single point]	–
C#CCN1C(=O)C2(C(C#N)=C(N)OC(C)=C2C(=O)OCc2ccccc2)c2ccccc21 (stereo not given)	inconclusive [inhibitor, single point]	–

SMILES	Potency	activity change, negative = growth inhibition
CCCCCCCCCCCCCCCCCC[N+](C)(C)CCC[Si](OC)(OC)OC	active: 23.7 µM	–
c1cnc(N2CCC3(CCNCC3)CC2)nc1	inconclusive [inhibitor, single point]	–
CCCCCCCCCOc1ccc2[nH]cc(CCN)c2c1	active: 8.41 µM and active: 7.31 µM	–
FC(F)(F)c1ccc2c(c1)nnn2C1CCN(Cc2nnnn2Cc2ccccc2)CC1	inconclusive [inhibitor, single point]	–
CCC(c1nnnn1-c1ccc2c(c1)OCCO2)N1CCC(n2c(=O)[nH]c3ccccc32)CC1 (stereo not given)	active: 10.3 µM	–
Cc1ccc(-c2cc(C(=O)N3CCC4(CC3)OCCO4)no2)cc1	inactive	–
CCc1cc(=O)[nH]c(SCCCF)n1	inactive	–
CCOC(=O)c1ccc(N=C(c2ccccc2)c2c(O)n(C)c(=O)n(C)c2=O)cc1	active: 2.91 µM	–
N[C@H](CO)Cc1ccccc1	inactive	–
CN(C)c1ccc(N=Cc2c(O)n(CCC3=CCCCC3)c(=O)[nH]c2=O)cc1	inconclusive [inhibitor, single point]	–
CN(C)C=C1C(=O)N(C2CCCCC2)C(=O)N(C2CCCCC2)C1=O	active: 16.4 µM	–
C(=NC12CN3CN(CN(C3)C1)C2)c1cccs1	inconclusive [inhibitor, single point]	–
O=C(NCC1=C(c2cccc3ccccc23)C[C@@H]2CC[C@H]1N2Cc1ccco1)c1ccc([N+](=O)[O-])cc1	active: 20.6 µM	–
CCCC[n+]1cc(/N=C(\[O-])OC)on1	inactive	–
COC(=O)C1=C(c2cccc(OC)c2OC)C[C@@H]2CC[C@H]1N2C(=O)NC(C)C	inconclusive [inhibitor, single point]	–
O=C(COC(=O)c1cccc(NC(=O)c2ccc(Br)cc2)c1)c1ccc(Br)cc1	inconclusive [inhibitor, single point]	–
O=C1c2cccc3cc([N+](=O)[O-])cc(c23)C(=O)N1c1ccccc1O	active: 20.6 µM	–
O=C(c1csnn1)N1CCC2(CC1)CN(Cc1ccncc1)C2	inactive	–
CCOC(=O)c1c(C)n(Cc2ccccc2)c2ccc(OCC(O)CNC(C)(C)C)cc12 (stereo not given)	inconclusive [inhibitor, single point]	–
CCCCCCCCCCCCCCCCOC[C@@H](O)COP(=O)([O-])OCC[N+](C)(C)C	–	inactive: -15.2% [at 4.12 µM]
COc1cc([N+](=O)[O-])c2ncccc2c1[N+](=O)[O-]	active: 2.59 µM	–
CCOP(=O)(OCC)c1nc(-c2ccc(C)cc2)oc1NCc1ccccc1	inconclusive [inhibitor, single point]	–
COc1ccccc1N1CCN(Cc2c[nH]c3ccccc23)CC1	active: 4.11 µM	–
CN1C(=O)NC(=O)[C@]2(Cc3ccccc3N3CCN(c4ccccc4)CC32)C1=O (stereo not given in full)	inconclusive [inhibitor, partial curve]	–

SMILES	Potency	activity change, negative = growth inhibition
O=C(CNC(=O)c1ccc(Br)cc1)NCC(=O)OCC(=O)c1ccc([N+](=O)[O-])cc1	inconclusive [inhibitor, single point]	–
Cc1cc(C)cc(OCCOc2cccc(C=C3C(=O)NC(=O)NC3=O)c2)c1	active: 18.4 µM	–
COc1cccc(C(c2nnnn2Cc2ccccc2)N2CCC(n3c(=O)[nH]c4ccccc43)CC2)c1OC (stereo not given)	active: 2.59 µM	–
CCC(C)C(=O)O[C@@H]1C[C@@]2(C)C(c3ccoc3)OC(=O)CC23OC2(C)O[C@@]14[C@@]1(C)C(CC(=O)OC)C5(C)CC1(O)C(O)(C5OC(=O)C1(C)OC1C)C(OC(C)=O)[C@@]34O2 (stereo not given in full)	inconclusive [inhibitor, single point]	–
c1ccc(C[C@@H](c2ccccc2)N2CCCCC2)cc1	inconclusive [inhibitor, single point]	–
O=P(Oc1ccccc1)(N1CCOCC1)N1CCOCC1	inactive	–
O=C(Nc1ccc(C(=O)O)cc1)Oc1ccc(N(CCCl)CCCl)cc1	active: 0.411 µM	–
O=C(O)c1cc(O)c(O)c(O)c1	active: 0.58 µM	–
Cc1[nH]c2ccccc2c1CN(C)C	inconclusive [inhibitor, single point]	–
CC(C)(C)c1cc(OC(=O)Cc2ccccc2)ccc1O	inactive	–
CC(NCc1ccccc1C(F)(F)F)C(O)c1ccccc1 (stereo not given)	inactive	–
COc1ccccc1CCNCc1ccc(OC)c(OC)c1OC	active: 25.9 µM	–
Cc1sc2ncnc(N3CCN(S(=O)(=O)c4ccc(Br)cc4)CC3)c2c1C	active: 13 µM	–
Cc1cc(C)cc(NC(=O)c2cnc3sc(N4CCCC4)nn3c2=O)c1	inconclusive [inhibitor, full curve, poor fit]	–
O=C(c1cc(-c2ccc(Cl)cc2)n(-c2ccc(Cl)cc2Cl)n1)N1CCOCC1	inconclusive [inhibitor, single point]	–
CC(C)OP(=O)(OC(C)C)C(Nc1ccccc1)c1ccccc1C(F)(F)F (stereo not given)	inconclusive [inhibitor, single point]	–
CCC(C#N)(CC)P(=S)(c1ccccc1)c1ccccc1	inconclusive [inhibitor, single point]	–
O=[N+]([O-])c1ccc(Oc2ccc(N=C=S)cc2)cc1	inconclusive [inhibitor, single point]	–
Cc1ccccc1-n1c(O)c(/C=N/NC(=O)c2ccccc2O)c(=O)[nH]c1=S	inconclusive [inhibitor, single point]	–
C[C@H]1CCCC(=O)CCCCCc2cc(O)cc(O)c2C(=O)O1	inconclusive [inhibitor, single point]	–
COc1ccc(-n2c(CN3CCOCC3)nc3ccccc3c2=O)c(OC)c1	inconclusive [inhibitor, single point]	–
C[C@@H](C1=C(CCN(C)C)Cc2ccccc21)c1ccccn1	inconclusive [inhibitor, partial curve, poor fit]	–
